Experiment [1] concerns the target T1, human B7-H7 on the cell surface (human, UniProt Q9UM44 23-414).
T1 construct: whole, on cells; also called hB7-H7; hu B7-H7
T1 sequence (looked up): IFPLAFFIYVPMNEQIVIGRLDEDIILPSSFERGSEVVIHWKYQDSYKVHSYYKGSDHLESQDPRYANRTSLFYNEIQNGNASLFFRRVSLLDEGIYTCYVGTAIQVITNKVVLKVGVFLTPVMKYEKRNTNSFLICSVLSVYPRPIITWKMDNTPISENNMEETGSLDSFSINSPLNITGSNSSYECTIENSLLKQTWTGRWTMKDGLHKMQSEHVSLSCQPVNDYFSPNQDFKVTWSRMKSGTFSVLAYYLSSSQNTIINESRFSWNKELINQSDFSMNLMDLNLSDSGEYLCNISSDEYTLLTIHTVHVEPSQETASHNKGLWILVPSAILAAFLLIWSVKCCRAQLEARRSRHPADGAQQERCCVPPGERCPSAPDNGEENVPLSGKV
Nature of the experiment: flow cytometry, HEK-293/hu B7-H7 cells. The protocol:
(§1) This example was intended to study the in vitro activity of H2L2 monoclonal antibodies against human B7-H7 in binding to human/cynomolgus monkey B7-H7. Since homologous molecules of B7-H7 were not present in mice, the detection was not performed. […] The cells were adjusted to a cell density of 1×10⁶ cells/mL, respectively. The cells were seeded in a 96-well V-bottom plate (Corning, #3894) at 100 μL/well, and the antibody to be tested at 2× final concentration with 3-fold concentration gradient dilution was then added at 100 μL/well. The cells were incubated at 4° C. for 2 hours in the dark. After the incubation, the cells were rinsed twice by adding pre-chilled PBS containing 2% BSA at 100 μl/well, and centrifuged at 500 g at 4° C. for 5 minutes, and the supernatant was discarded. […] The cells were washed twice by adding pre-chilled PBS containing 2% BSA at 100 μL/well, and centrifuged at 500 g at 4° C. for 5 minutes, and the supernatant was discarded. Finally, the cells were resuspended in pre-chilled PBS containing 2% BSA at 200 μL/well, and the fluorescence signal values were read using an ACEA Novocyte3000 flow cytometer.
(In general: In flow cytometry, cells or beads pass a laser one at a time.)

Experiment [2] has as its target T2, cynomolgus monkey B7-H7 on the cell surface (cynomolgus monkey).
T2 construct: whole, on cells; also called cyno B7-H7
As to the kind of experiment: flow cytometry, HEK-293/cyno B7-H7 cells. The protocol: as §1

For experiment [3], the target named is T3, biotinylated human B7-H7 protein (Acro Biosystems, B77-H82F5) (human, UniProt Q9UM44 23-344, biotinylated).
T3 construct: Bought soluble protein; also called biotin-B7H7 protein
T3 sequence (looked up): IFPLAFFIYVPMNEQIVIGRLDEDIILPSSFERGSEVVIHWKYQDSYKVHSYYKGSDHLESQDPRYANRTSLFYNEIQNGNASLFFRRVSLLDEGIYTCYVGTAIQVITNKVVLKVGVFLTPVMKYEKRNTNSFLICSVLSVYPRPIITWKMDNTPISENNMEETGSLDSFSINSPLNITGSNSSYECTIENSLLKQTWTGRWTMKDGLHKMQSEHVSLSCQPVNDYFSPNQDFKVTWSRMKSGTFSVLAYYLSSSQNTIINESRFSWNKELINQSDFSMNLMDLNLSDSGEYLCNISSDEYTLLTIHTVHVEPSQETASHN
As to the kind of experiment: flow cytometry, blocking of biotinylated human B7-H7 binding to HEK-293/CD28H cells. The protocol:
This example was intended to study the in vitro blocking activity of human anti-B7-H7 antibodies against the binding of human B7-H7 to its receptor CD28H. […] The cells were adjusted to a cell density of 1×10⁶ cells/mL. […] The cells were incubated at 4° C. for 1 hour in the dark. […] The cells were rinsed twice by adding pre-chilled PBS containing 2% BSA at 100 μL/well, and were centrifuged at 500 g at 4° C. for 5 minutes, and the supernatant was discarded. A fluorescent secondary antibody (PE Streptavidin, BD, Cat #: 554061, 1:200) was added at 100 μL/well, and the cells were incubated at 4° C. for 30 minutes in the dark. The cells were washed twice by adding pre-chilled PBS at 200 μL/well, and centrifuged at 500 g at 4° C. for 5 minutes, and the supernatant was discarded. Finally, the cells were resuspended in pre-chilled PBS at 200 μL/well, and the fluorescence signal values were read using an ACEA Novocyte3000 flow cytometer. IC50 was calculated.

A word on the EC50: it is the concentration at which the effect is half-maximal. By IC50 is commonly meant the concentration needed to halve the response being measured.

B1: PR003259 (antibody, human IgG1, kappa)
heavy: QVQLVESGGGVVQPGRSLRLSCAASGFTFSNYGMHWVRQVPGKGLEWVAVIWYDGSEKDYADSVKGRFTISRDNSKNTLYLQMNSLRVEDTAVYYCAKDLISGIYYVDHWGQGTLVTVSS[not shown - human IgG1 constant region]
light: DIQMTQSPSSLSASVGDRVTITCRASQGISNYLAWYQQKPGKVPKLLIYAASTLQSGVPSRFSGSGSGTDFTLTISSLQPEDVATYYCQKYNSAPFTFGPGTKVDIKRTVAAPSVFIFPPSDEQLKSGTASVVCLLNNFYPREAKVQWKVDNALQSGNSQESVTEQDSKDSTYSLSSTLTLSKADYEKHKVYACEVTHQGLSSPVTKSFNRGEC
notes: Human IgG1; also called 68F3A2
For the molecule B1, in experiment [1], the EC50 came to 0.945 nM and the “Maximum MFI” value was determined as 808000 MFI. In experiment [2], the half-maximal effective concentration (EC50) is 0.421 nM and the “Maximum MFI” value was determined as 419000 MFI. For the same molecule, in experiment [3], the IC50 turned out to be 1.43 nM and the “Maximum inhibition rate (%)” value amounted to 101%.

The values above are taken from patent publication US20250136696A1 (HARBOUR BIOMED SHANGHAI, published 2025).
